Here are results for eleven compounds from PubChem BioAssay (NCATS).

Some of the results follow. Further columns of the screen follow, without active or inactive calls. The list favours compounds with an active or inconclusive main result. Potencies come from curve fits of mixed quality, noted in brackets. Where a SMILES comes first, the peptide text is derived from it. The star is where a group is joined. AMC = Cc1cc(=O)oc2cc(N*)ccc12; Cbz = O=C(OCc1ccccc1)*

This experiment has as its target Nicotinamide N-methyltransferase (Homo sapiens) (UniProt P40261). In words: Confirmatory Screen for Target Class Profiling of Small Molecule Inhibitors of Methyltransferases (AID 1745852).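 Also: inhibitor potency for blocking SAH production.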 Particulars: MTase-Glo luminescence, SAH detection, recombinant enzyme; measured here: NNMT inhibition potency.
Tags tell the direction and shape of the fitted curve.

Sequence of UniProt P40261 (P40261 whole entry, looked up): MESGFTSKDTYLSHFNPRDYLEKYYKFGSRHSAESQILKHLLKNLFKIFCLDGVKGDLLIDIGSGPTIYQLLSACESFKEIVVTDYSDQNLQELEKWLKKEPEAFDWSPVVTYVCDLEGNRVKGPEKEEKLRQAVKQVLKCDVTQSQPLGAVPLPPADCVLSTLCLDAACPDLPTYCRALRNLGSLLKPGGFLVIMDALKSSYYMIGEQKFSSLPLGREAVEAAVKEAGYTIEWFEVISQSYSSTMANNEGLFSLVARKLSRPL

Turning to `CC(C)(C)c1ccc(C(=O)Nc2cc(Cl)c(Br)cc2C(=O)O)cc1`, the IC50 is 27.1 µM [falling, partial curve].

Regarding `Cc1cc(=O)oc2cc(NC(=O)[C@H](CCC(=O)O)NC(=O)[C@H](CC(C)C)NC(=O)[C@H](CC(C)C)NC(=O)OCc3ccccc3)ccc12` (Cbz-Leu-Leu-Glu-{AMC}), the IC50 is 13.6 µM [falling, partial curve].

For `CC1CCN(C(c2ccc(F)cc2)c2ccc(C(C)C(=O)O)cc2-c2ccc(C(F)(F)F)cc2)CC1` (stereo unspecified), the IC50 is 21.5 µM [falling, partial curve].

For `CC(C)Cn1c(=O)c2ccccc2n2c(CCC(=O)N3CCN(c4ccc(F)cc4)CC3)nnc12`, the IC50 was 21.5 µM [falling, partial curve].

Turning to `Cc1nn(C(=O)CCC(=O)N2CCC(Cc3nncn3CC3CC3)CC2)c2ccccc12`, the IC50 is 21.5 µM [falling, partial curve].

Take `Cc1cc2c(cc3n2CC(C)(C(=O)NC2CCCCCCC2)N(Cc2ccco2)C3=O)o1` (stereo unspecified): the IC50 was 21.5 µM [falling, partial curve].

With `COc1cccc(CNC(=O)c2sc(=S)n3c2[nH]c(=O)c2cc4c(cc23)OCO4)c1`, the IC50 is 24.1 µM [falling, partial curve].

Turning to `Cc1ccc2c(c1)c(-n1cccc1)c1n2CC(C)(C(=O)NCCC(C)C)N(Cc2cccnc2)C1=O` (stereo unspecified), the half-maximal inhibitory concentration (IC50) was 19.2 µM [falling, partial curve].

Consider `CC(C)C[C@H](C(=O)O)c1cc(-c2ccc(C(F)(F)F)cc2)cc(-c2ccc(C(F)(F)F)cc2)c1`, for which the IC50 is 30.4 µM [falling, single point].

In the case of `CN1CCN(c2ncnc3sc4c(c23)CCNC4)CC1`, the IC50 is 19.2 µM [falling, partial curve].

As for `COc1ncccc1-c1cc2c(ccn2CC2CCN([S+](C)(=O)[O-])CC2)c(N2CCOCC2)n1`, the IC50 was 6.07 µM [falling, partial curve, poor fit].
